Reference: article PMC3020946
No constants are given. Whether binding was seen depends on the method and setting. Binding seen in cells or lysates may run through a third protein. Some results given as binding are weak or reduced against the parent protein; the word gives no strength.

Sequences of proteins named here, by UniProt entry; tags and fusion partners are left off. A change or cut given only in a name is not applied to a line headed by its entry.
UniProt Q9WTX6: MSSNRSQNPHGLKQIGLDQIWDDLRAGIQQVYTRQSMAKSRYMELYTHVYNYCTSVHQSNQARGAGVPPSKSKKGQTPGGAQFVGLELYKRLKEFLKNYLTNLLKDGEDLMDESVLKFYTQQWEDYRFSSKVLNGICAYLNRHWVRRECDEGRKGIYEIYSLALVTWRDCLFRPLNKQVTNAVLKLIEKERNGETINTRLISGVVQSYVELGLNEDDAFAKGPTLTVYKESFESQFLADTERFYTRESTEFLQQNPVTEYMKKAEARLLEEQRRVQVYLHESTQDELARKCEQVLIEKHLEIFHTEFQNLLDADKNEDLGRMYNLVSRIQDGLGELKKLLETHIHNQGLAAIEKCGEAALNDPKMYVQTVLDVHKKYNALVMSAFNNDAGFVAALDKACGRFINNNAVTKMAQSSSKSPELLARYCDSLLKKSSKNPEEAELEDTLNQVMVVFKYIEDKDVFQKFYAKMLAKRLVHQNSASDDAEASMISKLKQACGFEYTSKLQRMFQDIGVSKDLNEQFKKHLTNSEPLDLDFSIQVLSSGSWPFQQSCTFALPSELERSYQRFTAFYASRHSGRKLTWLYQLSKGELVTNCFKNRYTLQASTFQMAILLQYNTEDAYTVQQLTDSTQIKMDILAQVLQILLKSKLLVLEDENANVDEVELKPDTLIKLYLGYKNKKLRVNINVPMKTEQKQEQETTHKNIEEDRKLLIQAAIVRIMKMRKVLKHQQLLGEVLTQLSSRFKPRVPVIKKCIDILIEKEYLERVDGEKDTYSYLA
UniProt Q93034: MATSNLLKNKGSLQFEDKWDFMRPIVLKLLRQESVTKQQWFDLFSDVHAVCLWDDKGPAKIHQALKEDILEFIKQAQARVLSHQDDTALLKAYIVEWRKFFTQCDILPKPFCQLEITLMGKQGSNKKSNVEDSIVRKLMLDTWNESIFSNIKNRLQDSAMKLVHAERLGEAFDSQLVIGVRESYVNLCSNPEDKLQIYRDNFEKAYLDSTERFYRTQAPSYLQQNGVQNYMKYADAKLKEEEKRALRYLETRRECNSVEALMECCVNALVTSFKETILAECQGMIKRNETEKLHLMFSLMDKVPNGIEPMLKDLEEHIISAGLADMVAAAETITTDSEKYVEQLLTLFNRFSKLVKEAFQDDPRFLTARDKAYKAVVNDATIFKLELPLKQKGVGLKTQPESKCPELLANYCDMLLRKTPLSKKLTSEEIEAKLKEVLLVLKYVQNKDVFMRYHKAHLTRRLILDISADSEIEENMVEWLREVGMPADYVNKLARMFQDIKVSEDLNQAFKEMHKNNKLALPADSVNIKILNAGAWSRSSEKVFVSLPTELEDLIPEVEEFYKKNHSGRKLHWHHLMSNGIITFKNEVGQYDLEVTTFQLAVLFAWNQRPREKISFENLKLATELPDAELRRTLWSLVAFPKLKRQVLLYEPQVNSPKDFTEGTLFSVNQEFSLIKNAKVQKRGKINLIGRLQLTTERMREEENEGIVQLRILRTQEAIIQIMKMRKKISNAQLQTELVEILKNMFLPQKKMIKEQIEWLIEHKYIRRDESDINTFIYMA
UniProt Q13617: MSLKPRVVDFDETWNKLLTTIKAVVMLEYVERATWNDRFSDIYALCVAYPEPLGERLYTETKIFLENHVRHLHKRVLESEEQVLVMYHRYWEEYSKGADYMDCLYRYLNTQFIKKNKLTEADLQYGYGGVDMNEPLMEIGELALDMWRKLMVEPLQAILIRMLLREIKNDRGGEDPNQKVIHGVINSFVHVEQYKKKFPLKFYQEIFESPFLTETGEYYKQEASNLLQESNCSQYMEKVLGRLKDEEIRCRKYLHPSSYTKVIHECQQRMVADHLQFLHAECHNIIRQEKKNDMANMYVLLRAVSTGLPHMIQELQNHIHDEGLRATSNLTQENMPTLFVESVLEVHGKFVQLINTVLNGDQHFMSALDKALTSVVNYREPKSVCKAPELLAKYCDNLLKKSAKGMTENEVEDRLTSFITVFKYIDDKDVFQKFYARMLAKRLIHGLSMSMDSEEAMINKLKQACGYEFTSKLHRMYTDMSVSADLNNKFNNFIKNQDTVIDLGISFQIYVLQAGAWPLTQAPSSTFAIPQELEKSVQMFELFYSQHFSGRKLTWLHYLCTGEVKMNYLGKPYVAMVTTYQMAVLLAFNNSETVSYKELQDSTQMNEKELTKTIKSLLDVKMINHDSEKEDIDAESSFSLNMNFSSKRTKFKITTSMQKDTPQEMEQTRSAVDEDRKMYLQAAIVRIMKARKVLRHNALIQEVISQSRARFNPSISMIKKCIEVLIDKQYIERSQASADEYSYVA
UniProt Q13619: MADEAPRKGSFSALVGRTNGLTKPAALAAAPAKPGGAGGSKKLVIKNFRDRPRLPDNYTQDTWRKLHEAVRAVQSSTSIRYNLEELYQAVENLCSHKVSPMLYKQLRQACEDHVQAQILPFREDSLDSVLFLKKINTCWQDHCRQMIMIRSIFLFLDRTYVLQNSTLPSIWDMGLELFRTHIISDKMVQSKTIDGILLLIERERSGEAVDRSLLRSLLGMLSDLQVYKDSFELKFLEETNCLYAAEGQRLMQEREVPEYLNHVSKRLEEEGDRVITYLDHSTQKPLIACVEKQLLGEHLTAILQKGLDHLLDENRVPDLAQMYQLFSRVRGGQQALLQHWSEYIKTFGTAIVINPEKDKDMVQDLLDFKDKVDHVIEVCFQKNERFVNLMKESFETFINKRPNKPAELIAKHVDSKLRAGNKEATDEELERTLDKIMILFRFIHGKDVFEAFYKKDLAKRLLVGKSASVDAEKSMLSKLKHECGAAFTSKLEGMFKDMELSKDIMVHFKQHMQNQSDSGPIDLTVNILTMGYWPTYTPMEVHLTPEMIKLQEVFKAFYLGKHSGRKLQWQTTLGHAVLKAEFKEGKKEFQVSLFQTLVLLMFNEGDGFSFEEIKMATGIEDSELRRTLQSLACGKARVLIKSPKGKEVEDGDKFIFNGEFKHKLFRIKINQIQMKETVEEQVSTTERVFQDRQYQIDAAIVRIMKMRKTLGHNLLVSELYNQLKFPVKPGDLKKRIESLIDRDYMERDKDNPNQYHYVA
UniProt Q92905: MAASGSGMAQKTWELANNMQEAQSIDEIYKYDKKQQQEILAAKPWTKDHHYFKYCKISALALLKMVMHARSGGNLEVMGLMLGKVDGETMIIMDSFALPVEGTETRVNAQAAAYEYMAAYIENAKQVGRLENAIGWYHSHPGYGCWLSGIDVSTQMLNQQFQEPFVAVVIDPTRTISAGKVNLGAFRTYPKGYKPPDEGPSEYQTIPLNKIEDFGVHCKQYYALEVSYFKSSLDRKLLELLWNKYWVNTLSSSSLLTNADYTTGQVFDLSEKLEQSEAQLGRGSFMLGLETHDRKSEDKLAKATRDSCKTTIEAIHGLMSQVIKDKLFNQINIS
UniProt Q86VP6: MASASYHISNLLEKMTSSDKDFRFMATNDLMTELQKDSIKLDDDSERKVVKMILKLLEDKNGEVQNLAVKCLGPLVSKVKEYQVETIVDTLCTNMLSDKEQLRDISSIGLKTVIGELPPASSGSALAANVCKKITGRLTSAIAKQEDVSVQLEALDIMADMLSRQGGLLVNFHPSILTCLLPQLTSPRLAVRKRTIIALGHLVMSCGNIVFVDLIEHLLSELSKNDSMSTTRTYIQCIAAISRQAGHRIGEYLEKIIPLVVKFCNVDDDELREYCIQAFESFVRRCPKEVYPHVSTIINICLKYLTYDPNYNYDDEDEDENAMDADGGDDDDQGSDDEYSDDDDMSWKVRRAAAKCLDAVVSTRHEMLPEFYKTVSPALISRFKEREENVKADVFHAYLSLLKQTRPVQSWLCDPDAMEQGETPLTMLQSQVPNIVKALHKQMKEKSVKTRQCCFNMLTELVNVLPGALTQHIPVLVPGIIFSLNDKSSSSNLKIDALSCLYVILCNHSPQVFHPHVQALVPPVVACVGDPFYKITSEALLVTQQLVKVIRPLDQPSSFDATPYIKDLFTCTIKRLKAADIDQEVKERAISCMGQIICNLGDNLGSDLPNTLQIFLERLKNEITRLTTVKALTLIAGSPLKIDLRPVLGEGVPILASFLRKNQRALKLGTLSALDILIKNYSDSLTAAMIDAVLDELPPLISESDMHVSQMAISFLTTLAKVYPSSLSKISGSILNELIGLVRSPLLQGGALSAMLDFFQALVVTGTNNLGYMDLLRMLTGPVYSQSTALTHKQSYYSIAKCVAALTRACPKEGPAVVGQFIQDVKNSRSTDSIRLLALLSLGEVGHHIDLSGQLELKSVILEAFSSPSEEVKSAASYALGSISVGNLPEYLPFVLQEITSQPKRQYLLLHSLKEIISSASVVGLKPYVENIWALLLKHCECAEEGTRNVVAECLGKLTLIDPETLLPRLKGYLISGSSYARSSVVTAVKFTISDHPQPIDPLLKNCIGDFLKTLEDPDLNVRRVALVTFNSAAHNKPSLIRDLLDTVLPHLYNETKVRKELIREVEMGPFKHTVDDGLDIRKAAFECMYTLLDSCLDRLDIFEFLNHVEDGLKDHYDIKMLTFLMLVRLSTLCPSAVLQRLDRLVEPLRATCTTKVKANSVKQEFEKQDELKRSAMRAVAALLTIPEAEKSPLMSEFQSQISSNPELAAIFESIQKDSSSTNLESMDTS
UniProt Q9Y297: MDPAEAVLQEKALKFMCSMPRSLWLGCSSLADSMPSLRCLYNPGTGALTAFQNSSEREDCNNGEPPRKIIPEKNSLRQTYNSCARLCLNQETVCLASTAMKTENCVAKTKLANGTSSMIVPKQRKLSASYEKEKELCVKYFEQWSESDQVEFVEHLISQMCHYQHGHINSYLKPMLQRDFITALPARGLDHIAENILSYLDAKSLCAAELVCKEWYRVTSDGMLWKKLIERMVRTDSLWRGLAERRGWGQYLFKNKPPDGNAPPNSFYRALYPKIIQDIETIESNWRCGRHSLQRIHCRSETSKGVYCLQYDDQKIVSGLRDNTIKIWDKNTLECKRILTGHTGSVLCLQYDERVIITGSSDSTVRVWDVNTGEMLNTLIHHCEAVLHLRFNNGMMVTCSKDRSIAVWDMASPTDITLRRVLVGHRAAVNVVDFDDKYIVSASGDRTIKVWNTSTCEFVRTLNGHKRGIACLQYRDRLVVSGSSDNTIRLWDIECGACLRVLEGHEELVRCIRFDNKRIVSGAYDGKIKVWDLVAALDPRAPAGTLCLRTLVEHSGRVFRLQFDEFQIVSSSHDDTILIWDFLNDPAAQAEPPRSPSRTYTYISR
UniProt P63208: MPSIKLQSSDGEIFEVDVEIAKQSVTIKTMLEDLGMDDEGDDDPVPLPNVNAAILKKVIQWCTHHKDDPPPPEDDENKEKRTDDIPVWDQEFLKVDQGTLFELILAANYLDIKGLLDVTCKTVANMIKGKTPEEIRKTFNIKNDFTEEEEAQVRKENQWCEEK

What was measured:
[1] = biological target: K472E/R473E mutant Cul1-V5 (mouse) (UniProt Q9WTX6); experiment: co-IP; V5 immunoprecipitation of V5-tagged cullins from lysates of transfected HEK293 cells (in Fig. 2d dnUbc12 tet-on cells, induced with 1 µg/ml tetracycline for 24 hours); 4°C, 2 hours; washes in 50 mM Tris pH 7.5, 0.5% NP40, 5% glycerol, 0.5 mM EDTA, 50 mM NaCl; Western blot of the partners
[2] = biological target: full length Cul1-V5 (wild type) (mouse) (UniProt Q9WTX6); experiment: as above
[3] = biological target: Cul1 carrying an N-terminal FLAG and a C-terminal V5 tag (mouse) (UniProt Q9WTX6); experiment: co-IP; HEK293 cells cotransfected with FLAG-Cul1-V5 and V5-tagged CAND1, β-TrCP or Skp2; total cell lysate; FLAG immunoprecipitation, Western blot with V5 antibody
[4] = biological target: Cul1 carrying an N-terminal FLAG and a C-terminal V5 tag (mouse) (UniProt Q9WTX6); experiment: co-IP; as the FLAG-Cul1-V5 immunoprecipitation, with cytoplasmic cellular fractions; data not shown
[5] = biological target: full length Cul1-FLAG (mouse) (UniProt Q9WTX6); experiment: co-IP; FLAG immunoprecipitation of full length Cul1-FLAG from transfected dnCul1 tet-on cells (not induced) or cells with negative control or Skp1 siRNA (20 nM, three days); Western blot of endogenous Skp1, Skp2, CAND1
[6] = biological target: Cul5-V5 (UniProt Q93034); experiment: co-IP; V5 immunoprecipitation of V5-tagged cullins from lysates of transfected HEK293 cells (in Fig. 2d dnUbc12 tet-on cells, induced with 1 µg/ml tetracycline for 24 hours); 4°C, 2 hours; washes in 50 mM Tris pH 7.5, 0.5% NP40, 5% glycerol, 0.5 mM EDTA, 50 mM NaCl; Western blot of the partners
[7] = biological target: Cul2-V5 (UniProt Q13617); experiment: as above
[8] = biological target: Cul4a-V5 (UniProt Q13619); experiment: as above
[9] = biological target: full length Cul1-FLAG (mouse) (UniProt Q9WTX6); experiment: condition: only with dnCul1-V5 induced (1 µg/ml tetracycline, 24 hours); co-IP; FLAG immunoprecipitation of full length Cul1-FLAG from dnCul1 tet-on cells with dnCul1-V5 induced by 1 µg/ml tetracycline during the last 24 hours; Western blot of endogenous proteins
[10] = biological target: full length Cul1-V5 (wild type) (mouse) (UniProt Q9WTX6); experiment: co-IP; 10 µg recombinant GST-CAND1 transfected with TurboFect for one hour into cells expressing Cul1-V5 (with or without dnCul1-V5); V5 immunoprecipitation, Western blot with GST and V5 antibodies; only the binder purified

Substance | binding [1] | binding [2] | binding [3] | binding [5] | other results
CSN5 subunit of the COP9 signalosome (CSN) (from UniProt Q92905 1-334) | no binding | binds |  |  | 
V5-tagged CAND1 (from UniProt Q86VP6 1-1230) |  |  | binds weakly |  | 
V5-tagged β-TrCP (from UniProt Q9Y297 1-605) |  |  | binds |  | binding [4]: binds
endogenous CAND1 (from UniProt Q86VP6 1-1230) | binds | binds |  | binds | binding [6]: binds; binding [7]: binds; binding [8]: binds
endogenous Skp1 (from UniProt P63208 1-163) |  |  |  | binds | binding [9]: no binding
recombinant GST-CAND1 (from UniProt Q86VP6 1-1230) |  |  |  |  | binding [10]: binds
